Measurements: article PMC4336329 (PLoS ONE, 2015)
Screen size: about 310,000 compounds; about 2,200 (0.71%) showed an effect of 50% or more. Effects have a minus sign here. The list shows a part of the results.

The compounds below were run against human ether-à-go-go-related gene (hERG) potassium channel (human, UniProt Q12809) (assay: primary screen, population patch clamp on CHO cells stably expressing hERG).
Chain of human ether-à-go-go-related gene (hERG) potassium channel (Q12809 whole entry, looked up): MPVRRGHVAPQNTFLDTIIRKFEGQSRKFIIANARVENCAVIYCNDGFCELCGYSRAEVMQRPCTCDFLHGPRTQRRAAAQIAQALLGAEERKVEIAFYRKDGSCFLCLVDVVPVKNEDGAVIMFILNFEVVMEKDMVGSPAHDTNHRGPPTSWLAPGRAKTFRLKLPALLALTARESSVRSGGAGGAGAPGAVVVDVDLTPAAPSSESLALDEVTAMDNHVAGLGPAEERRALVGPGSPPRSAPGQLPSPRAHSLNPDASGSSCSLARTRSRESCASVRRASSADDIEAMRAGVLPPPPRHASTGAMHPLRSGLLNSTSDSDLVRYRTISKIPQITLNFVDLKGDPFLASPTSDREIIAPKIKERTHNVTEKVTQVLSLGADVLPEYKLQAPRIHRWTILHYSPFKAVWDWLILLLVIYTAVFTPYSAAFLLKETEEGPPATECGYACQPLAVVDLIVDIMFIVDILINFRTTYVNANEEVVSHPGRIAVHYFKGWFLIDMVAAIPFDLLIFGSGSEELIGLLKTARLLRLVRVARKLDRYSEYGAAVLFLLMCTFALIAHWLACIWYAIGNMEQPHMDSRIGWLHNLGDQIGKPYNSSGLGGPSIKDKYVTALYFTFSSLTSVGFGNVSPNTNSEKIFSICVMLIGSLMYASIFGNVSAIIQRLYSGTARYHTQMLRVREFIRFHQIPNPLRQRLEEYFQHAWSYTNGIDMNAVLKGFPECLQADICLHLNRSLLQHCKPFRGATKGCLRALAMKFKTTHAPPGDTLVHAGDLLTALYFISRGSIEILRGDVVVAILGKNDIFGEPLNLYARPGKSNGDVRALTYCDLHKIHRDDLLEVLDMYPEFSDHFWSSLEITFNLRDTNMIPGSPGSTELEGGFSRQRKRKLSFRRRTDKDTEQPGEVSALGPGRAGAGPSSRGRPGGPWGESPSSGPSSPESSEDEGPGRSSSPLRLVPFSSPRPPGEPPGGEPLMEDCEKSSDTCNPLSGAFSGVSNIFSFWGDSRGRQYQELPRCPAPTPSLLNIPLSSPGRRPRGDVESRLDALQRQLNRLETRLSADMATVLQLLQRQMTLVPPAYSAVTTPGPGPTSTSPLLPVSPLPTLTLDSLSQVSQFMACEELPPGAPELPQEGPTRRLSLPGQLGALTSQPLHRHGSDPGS

Structure (SMILES)	hERG current change (%, negative = inhibition) at 1uM [%]
CC(C)NCCOc1cccc(Br)c1.O=C(O)C(=O)O	16.2
O=C(Nc1ccc2oc(-c3ccccc3)nc2c1)c1ccc2c(c1)OCCO2	20.5
CCN(CC)c1nc(N(CC)CC)[nH]c(=O)n1	-0.561
COc1ccc(-c2nc(C#N)c(NCc3ccc(C)cc3)o2)cc1OC	7.64
O=C(/C=C/c1ccc([N+](=O)[O-])cc1)N1CCN(c2ccccc2F)CC1	-7.11
COc1ccc(OC(C)C(=O)N(C)Cc2nc(-c3cccc(C)c3)no2)cc1 (centres unmarked)	14.4
CCCC(=O)c1cc(F)c(N2CCN(CCC#N)CC2)cc1C	7.56
Cc1cc(OCC(=O)OCC(=O)NC2CCCC2)ccc1Cl	15
O=C(Nc1ccc(Cl)cn1)c1ccc2nccnc2c1	9.23
Cc1ccc(NC(=O)CNCc2cccs2)c(Br)c1.Cl	3.24
O=C(O)/C=C/c1cn(-c2ccccc2)nc1-c1cc2ccccc2oc1=O	9.46
c1ccc(CSc2nnc3ccc(-c4cccs4)nn23)nc1	4.57
O=C(NCCCl)NNC(=O)c1cc2ccccc2cc1O	10.9
Cl.c1ccc2c(c1)CN1CCCC1=N2	8.81
CCS(=O)(=O)Nc1cccc(C2=NN(S(C)(=O)=O)C(c3ccccc3)C2)c1 (centres unmarked)	9.9
CC1(C)O[C@@H]2[C@H](O1)[C@@H](COS(=O)(=O)[O-])O[C@H]2n1ccc(=O)[nH]c1=O.[K+]	7.78
O=C(O)C1CC(c2cccc(Br)c2)=NO1 (centres unmarked)	11.2
CC(C)(C)N(Cc1ccccc1)C(=O)COC(=O)C1CCN(c2ccc(C(F)(F)F)cn2)CC1	17.7
O=C(NNC1=Nc2ccccc2SC1)c1ccc(F)cc1	11.9
O=C(COC(=O)C12CC3CC(CC(C3)C1)C2)NC12CC3CC(CC(C3)C1)C2	7.85
O=C(CNCc1cccnc1)Nc1cc(C(F)(F)F)ccc1N1CCOCC1.O=C(O)C(=O)O	-19.2
CCOc1ccc(C(C(=O)NC2CCCCC2)N(C(=O)Cc2cccs2)c2ccc(-n3cnnn3)c(OC)c2)cc1 (centres unmarked)	6.88

Structure (SMILES)	hERG current change (%, negative = inhibition) at 1uM [%]
O=c1n(Cc2ccccc2F)c2ccccc2n1Cc1ccccc1F	14.5
CCc1c(C(=O)NCc2ccccc2Cl)[nH]c(C)c1C(C)=O	11.1
COCCN(CC(=O)Nc1ccccc1)S(=O)(=O)c1ccc(S(=O)(=O)N2CCCC2)cc1	6.19
Cc1ccc(C)c(S(=O)(=O)Nc2ccc3[nH]c(=O)[nH]c3c2)c1	8.83
COc1cc(/C=N/NC(=O)c2ccncc2)ccc1Oc1ccc([N+](=O)[O-])cn1	3.18
CCC1CCCCN1S(=O)(=O)c1ccccc1[N+](=O)[O-] (centres unmarked)	16.3
N#Cc1ccc(CSCC(=O)NN=C2CCCC2)cc1	7.68
CCC1CN(C(=O)N2CCC(C(=O)NCc3ccc(C)o3)CC2)c2cc(C)ccc2O1 (centres unmarked)	7.45
CC1(C)Cc2c(sc(NC(=O)/C=C/C(=O)O)c2C#N)CO1	14.2
CCOc1ccccc1NC(=S)NCC1CCCO1 (centres unmarked)	7.87
CCCC1(C(=O)OCC)NC(c2ccc(N(C)C)cc2)C2C(=O)N(c3ccccc3)C(=O)C21 (centres unmarked)	1.24
COc1ccc(S(=O)(=O)N2CCCC2C(=O)Nc2nnc(-c3cccnc3)s2)cc1 (centres unmarked)	10.5
COc1cc(-c2noc(C)c2C(=O)NCCc2c[nH]c3ccccc23)cc(OC)c1OC	14.5
C=CCNc1nc2c(c(=O)[nH]c(=O)n2C)n1CCCc1ccccc1	1.64
N#CC1=C2SCN(Cc3ccccc3)CN2C(=O)CC1c1ccccc1F (centres unmarked)	10.4
COc1ccc(C(=O)CC(=O)c2ccc(OC)cc2)cc1	15.8
COc1cccc(NC(=O)CSc2ccc(-c3sc(C)nc3C)nn2)c1	10.4
COc1cc(NC(=O)c2cccs2)ccc1NC(=O)c1ccccc1Cl	6.14
C=CCOc1c2ccc(C(=O)NC3CCCc4ccccc43)cc2nn1C (centres unmarked)	6.6
O=S(=O)(Nc1ccccn1)c1cccc(S(=O)(=O)c2ccc(Br)cc2)c1	1.92
C=CCn1c(NC(=O)c2ccc(Br)o2)c(S(=O)(=O)c2ccccc2)c2nc3ccccc3nc21	8.45
O=C(O)c1ccc(NC(=S)NC(=O)c2cccnc2)cc1	16.2
